{
  "source": "the supplement of paper PMC8728848",
  "binders": {"B1": {"name": "PX9961T-pdi-555-33-555 (Parabacteroides distasonis) (protein)", "chain": "FDEETAFQSPTLVYVNTVASLYNNMFKIMGNDRHVYDLNTFSSDEAMLPCRIGDWEDGGLWQNIFLHRWGTMNDLTKNSWDFLYEQIGKCNQSVDKLQAFAEEQPDVEYFKVYLEEVRAVRAFFYYELLDLFARVPLVTSSTTPMSEVKQSERSVVFNFVRSELEEALPYLSDNRSNQKGEYYGRITKPVAYMILAKLALNAEVYADDNWTDGNRPAGKNIKFTVDGKEMNAWEATIAYVDKLEALGYKLQGNFSENFAVANETSVENIFTVPMDPVAYPDAKDYNLVRTRHYDHATAYGQSGWNGSCATVKAMNVFKFGTADEDPRCKLTYFTGEVTGPDGKTIYTEWDGQKVPLKYEPNAPKVYMDASDGLLVKTAGARMAKYEFDQNAQDGGNLHGNDCVIFRFADALLMKAEAKIRLGQNGDDEVNQVRNRVGAKPLQNVTLDTLLDERMLELAWEGVRRQDLIRFGKFTEATVDRYVGVKHFASSLDYQEDKTGYTTVFSIYADILSLNPNLTQNPGY"}},
  "assay_in_all_cases": "glycan array binding signal (z-score within array); higher = stronger binding",
  "settings_in_all_cases": "glycan notation: IUPAC condensed, linker removed",
  "key": {"[1]": {"target": "Fuc(a1-2)Gal(b1-4)GlcNAc(b1-3)Gal(b1-4)GlcNAc(b1-3)Gal(b1-4)GlcNAc", "in_short": "(§1)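 The binding signal is a Z-score computed within each array. Data were drawn from 3228 arrays in the Consortium for Functional Glycomics database, restricted to those with a known protein sequence. Scores were averaged over arrays of the same protein sequence at different concentrations or buffers, and over linkers, and negative values can be taken as non-binding.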"}, "[2]": {"target": "Fuc(a1-2)Gal(b1-4)GlcNAc(b1-3)GalNAc", "in_short": "as §1"}, "[3]": {"target": "Fuc(a1-2)Gal(b1-4)GlcNAc(b1-3)[Fuc(a1-2)Gal(b1-4)GlcNAc(b1-6)]GalNAc", "in_short": "as §1"}, "[4]": {"target": "Fuc(a1-2)Gal(b1-4)GlcNAc(b1-3)[Fuc(a1-3)[Gal(b1-4)]GlcNAc(b1-6)]Gal(b1-4)Glc", "in_short": "as §1"}, "[5]": {"target": "Fuc(a1-2)Gal(b1-4)GlcNAc(b1-6)GalNAc", "in_short": "as §1"}, "[6]": {"target": "Fuc(a1-2)Gal(b1-4)GlcNAc6S", "in_short": "as §1"}, "[7]": {"target": "Fuc(a1-2)Gal(b1-4)[Fuc(a1-3)]GlcNAc", "in_short": "as §1"}, "[8]": {"target": "Fuc(a1-2)Gal(b1-4)[Fuc(a1-3)]GlcNAc(b1-2)Man(a1-3)[Fuc(a1-2)Gal(b1-4)[Fuc(a1-3)]GlcNAc(b1-2)Man(a1-6)]Man(b1-4)GlcNAc(b1-4)[Fuc(a1-6)]GlcNAc", "in_short": "as §1"}, "[9]": {"target": "Fuc(a1-2)Gal(b1-4)[Fuc(a1-3)]GlcNAc(b1-2)[Fuc(a1-2)Gal(b1-4)[Fuc(a1-3)]GlcNAc(b1-4)]Man(a1-3)[Fuc(a1-2)Gal(b1-4)[Fuc(a1-3)]GlcNAc(b1-2)Man(a1-6)]Man(b1-4)GlcNAc(b1-4)GlcNAc", "in_short": "as §1"}, "[10]": {"target": "Fuc(a1-2)Gal(b1-4)[Fuc(a1-3)]GlcNAc(b1-3)Gal(b1-4)[Fuc(a1-3)]GlcNAc", "in_short": "as §1"}, "[11]": {"target": "Fuc(a1-2)Gal(b1-4)[Fuc(a1-3)]GlcNAc(b1-3)Gal(b1-4)[Fuc(a1-3)]GlcNAc(b1-3)Gal(b1-4)[Fuc(a1-3)]GlcNAc", "in_short": "as §1"}, "[12]": {"target": "Fuc(a1-2)Gal(b1-4)[Fuc(a1-3)]GlcNAc(b1-3)GalNAc", "in_short": "as §1"}, "[13]": {"target": "Fuc(a1-2)Gal(b1-4)[Fuc(a1-3)]GlcNAc(b1-3)[Neu5Ac(a2-6)Gal(b1-4)GlcNAc(b1-6)]Gal(b1-4)Glc", "in_short": "as §1"}, "[14]": {"target": "Fuc(a1-2)Gal3S(b1-4)GlcNAc", "in_short": "as §1"}, "[15]": {"target": "Fuc(a1-2)Gal6S(b1-3)GlcNAc", "in_short": "as §1"}, "[16]": {"target": "Fuc(a1-2)Gal6S(b1-3)GlcNAc6S", "in_short": "as §1"}, "[17]": {"target": "Fuc(a1-2)Gal6S(b1-4)Glc", "in_short": "as §1"}, "[18]": {"target": "Fuc(a1-2)Gal6S(b1-4)Glc6S", "in_short": "as §1"}, "[19]": {"target": "Fuc(a1-2)[Gal(a1-3)]Gal", "in_short": "as §1"}, "[20]": {"target": "Fuc(a1-2)[Gal(a1-3)]Gal(b1-3)GalNAc", "in_short": "as §1"}, "[21]": {"target": "Fuc(a1-2)[Gal(a1-3)]Gal(b1-3)GalNAc(b1-3)Gal(a1-4)Gal(b1-4)Glc", "in_short": "as §1"}, "[22]": {"target": "Fuc(a1-2)[Gal(a1-3)]Gal(b1-3)GlcNAc", "in_short": "as §1"}, "[23]": {"target": "Fuc(a1-2)[Gal(a1-3)]Gal(b1-3)GlcNAc(b1-2)Man(a1-3)[Fuc(a1-2)[Gal(a1-3)]Gal(b1-3)GlcNAc(b1-2)Man(a1-6)]Man(b1-4)GlcNAc(b1-4)GlcNAc", "in_short": "as §1"}, "[24]": {"target": "Fuc(a1-2)[Gal(a1-3)]Gal(b1-3)GlcNAc(b1-2)Man(a1-3)[Fuc(a1-2)[Gal(a1-3)]Gal(b1-3)GlcNAc(b1-2)Man(a1-6)]Man(b1-4)GlcNAc(b1-4)[Fuc(a1-6)]GlcNAc", "in_short": "as §1"}, "[25]": {"target": "Fuc(a1-2)[Gal(a1-3)]Gal(b1-3)GlcNAc(b1-3)GalNAc", "in_short": "as §1"}, "[26]": {"target": "Fuc(a1-2)[Gal(a1-3)]Gal(b1-3)GlcNAc(b1-6)GalNAc", "in_short": "as §1"}, "[27]": {"target": "Fuc(a1-2)[Gal(a1-3)]Gal(b1-4)Glc", "in_short": "as §1"}, "[28]": {"target": "Fuc(a1-2)[Gal(a1-3)]Gal(b1-4)GlcNAc", "in_short": "as §1"}, "[29]": {"target": "Fuc(a1-2)[Gal(a1-3)]Gal(b1-4)GlcNAc(b1-2)Man", "in_short": "as §1"}, "[30]": {"target": "Fuc(a1-2)[Gal(a1-3)]Gal(b1-4)GlcNAc(b1-2)Man(a1-3)[Fuc(a1-2)[Gal(a1-3)]Gal(b1-4)GlcNAc(b1-2)Man(a1-6)]Man(b1-4)GlcNAc(b1-4)GlcNAc", "in_short": "as §1"}, "[31]": {"target": "Fuc(a1-2)[Gal(a1-3)]Gal(b1-4)GlcNAc(b1-2)Man(a1-3)[Fuc(a1-2)[Gal(a1-3)]Gal(b1-4)GlcNAc(b1-2)Man(a1-6)]Man(b1-4)GlcNAc(b1-4)[Fuc(a1-6)]GlcNAc", "in_short": "as §1"}, "[32]": {"target": "Fuc(a1-2)[Gal(a1-3)]Gal(b1-4)GlcNAc(b1-3)GalNAc", "in_short": "as §1"}, "[33]": {"target": "Fuc(a1-2)[Gal(a1-3)]Gal(b1-4)GlcNAc(b1-3)[Fuc(a1-2)[Gal(a1-3)]Gal(b1-4)GlcNAc(b1-6)]GalNAc", "in_short": "as §1"}, "[34]": {"target": "Fuc(a1-2)[Gal(a1-3)]Gal(b1-4)GlcNAc(b1-6)GalNAc", "in_short": "as §1"}, "[35]": {"target": "Fuc(a1-2)[Gal(a1-3)]Gal(b1-4)[Fuc(a1-3)]Glc", "in_short": "as §1"}, "[36]": {"target": "Fuc(a1-2)[Gal(a1-3)]Gal(b1-4)[Fuc(a1-3)]GlcNAc", "in_short": "as §1"}, "[37]": {"target": "Fuc(a1-2)[Gal(a1-3)]Gal(b1-4)[Fuc(a1-3)]GlcNAc(b1-3)GalNAc", "in_short": "as §1"}},
  "note": "Some of the results follow.",
  "data": [
    {"binder": "B1", "values": [
      {"measurement": "glycan array binding signal (z-score)", "setting": "[1]", "result": -0.003},
      {"measurement": "glycan array binding signal (z-score)", "setting": "[2]", "result": 0.576},
      {"measurement": "glycan array binding signal (z-score)", "setting": "[3]", "result": 0.373},
      {"measurement": "glycan array binding signal (z-score)", "setting": "[4]", "result": -0.528},
      {"measurement": "glycan array binding signal (z-score)", "setting": "[5]", "result": -0.483},
      {"measurement": "glycan array binding signal (z-score)", "setting": "[6]", "result": -0.249},
      {"measurement": "glycan array binding signal (z-score)", "setting": "[7]", "result": -0.586},
      {"measurement": "glycan array binding signal (z-score)", "setting": "[8]", "result": 0.323},
      {"measurement": "glycan array binding signal (z-score)", "setting": "[9]", "result": -0.234},
      {"measurement": "glycan array binding signal (z-score)", "setting": "[10]", "result": -0.749},
      {"measurement": "glycan array binding signal (z-score)", "setting": "[11]", "result": -0.168},
      {"measurement": "glycan array binding signal (z-score)", "setting": "[12]", "result": -0.359},
      {"measurement": "glycan array binding signal (z-score)", "setting": "[13]", "result": 0.591},
      {"measurement": "glycan array binding signal (z-score)", "setting": "[14]", "result": -0.354},
      {"measurement": "glycan array binding signal (z-score)", "setting": "[15]", "result": 0.027},
      {"measurement": "glycan array binding signal (z-score)", "setting": "[16]", "result": 0.583},
      {"measurement": "glycan array binding signal (z-score)", "setting": "[17]", "result": -0.589},
      {"measurement": "glycan array binding signal (z-score)", "setting": "[18]", "result": -0.413},
      {"measurement": "glycan array binding signal (z-score)", "setting": "[19]", "result": 0.047},
      {"measurement": "glycan array binding signal (z-score)", "setting": "[20]", "result": -0.357},
      {"measurement": "glycan array binding signal (z-score)", "setting": "[21]", "result": -0.628},
      {"measurement": "glycan array binding signal (z-score)", "setting": "[22]", "result": 0.058},
      {"measurement": "glycan array binding signal (z-score)", "setting": "[23]", "result": 0.711},
      {"measurement": "glycan array binding signal (z-score)", "setting": "[24]", "result": -0.167},
      {"measurement": "glycan array binding signal (z-score)", "setting": "[25]", "result": -0.258},
      {"measurement": "glycan array binding signal (z-score)", "setting": "[26]", "result": -0.506},
      {"measurement": "glycan array binding signal (z-score)", "setting": "[27]", "result": 0.982},
      {"measurement": "glycan array binding signal (z-score)", "setting": "[28]", "result": 0.568},
      {"measurement": "glycan array binding signal (z-score)", "setting": "[29]", "result": 0.332},
      {"measurement": "glycan array binding signal (z-score)", "setting": "[30]", "result": -0.448},
      {"measurement": "glycan array binding signal (z-score)", "setting": "[31]", "result": 0.254},
      {"measurement": "glycan array binding signal (z-score)", "setting": "[32]", "result": -0.696},
      {"measurement": "glycan array binding signal (z-score)", "setting": "[33]", "result": 0.214},
      {"measurement": "glycan array binding signal (z-score)", "setting": "[34]", "result": 0.678},
      {"measurement": "glycan array binding signal (z-score)", "setting": "[35]", "result": 0.475},
      {"measurement": "glycan array binding signal (z-score)", "setting": "[36]", "result": 0.225},
      {"measurement": "glycan array binding signal (z-score)", "setting": "[37]", "result": -0.153}
    ]}
  ]
}
